In the supplement of paper PMC11417369:
Some of the results follow.

tested on: PfHDP1 homeodomain (GST-tagged); test: gcPBM binding intensity (ln(normalized median fluorescence intensity)); higher = stronger DNA binding
Method in brief: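 The highest Masliner-normalised natural-log median intensity across replicate spots of either probe orientation is reported as binding intensity. GST-tagged P. falciparum DNA-binding domains expressed in E. coli were applied for 1 h to an Agilent 4 × 180k array of primer-extended double-stranded 36-bp intergenic genomic probes plus negative controls, and bound protein was detected with Alexa488 anti-GST antibody and scanned at 488 nm.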

| Sequence | gcPBM binding intensity (ln) |
| --- | --- |
| TTGCTTATATTTCTAAAATGTAAAAGACACAAAGGT [XGTACX_negctrl_site225] | 6.73 |
| AGATACTTTTTTAAAAGTACAAAAACTTTCGATATA [XGTACX_site959] | 6.12 |
| ATATTTTTTGTATGTTGTACATAAAATATACATTTT [XGTACX_site6815] | 6.44 |
| TCTAAAATAGTCCAGAGTACAAGAAACCATAATATA [XGTACX_site5237] | 6.17 |
| CATACATACATACATACACACATACATATATATATA [CACACA_site8388] | 8.96 |
| AATTCTTTTTTCAACACACACACACCCGAAAATATA [CACACA_site3111] | 7.53 |
| ATATAGGTAATATTTTGTACATATTTTTGGGGTAGT [XGTACX_site5634] | 7.35 |
| GATAATTTTTGCATATGTACTTAAAAATTAAAAATT [XGTACX_site7037] | 7.15 |
| AAAAAAAAAAAAGGTACTACACACTATTATCAATAG [XGTACX_site161] | 6.26 |
| ACATTTATTTTGAATGGTACACTATTATTATGAAAT [XGTACX_site4384] | 6.14 |
| GACCTACAAAAAGGCACACATATACTCATACATACA [CACACA_site5232] | 6.71 |
| GTGTAATGCTTATCGGTGCATATATATATATATATA | 10.4 |
| AAAAAAGAAACAATCGCATGCAATGTTAATGTACAT [TGCATGCA_site395] | 6.77 |
| AGGTGTCATATATGCACACAAAAGTAACACGCACCT [CACACA_site472] | 9.78 |
| TACGCAAAATAAAATCAAAATATAAGGAAAAAAAAA [TGCATGCA_negctrl_site578] | 5.96 |
| TTTTTTAAACGTTTAAATAATTAAATATAAATAAAT [CACACA_negctrl_site1567] | 6.22 |
| TGAACAACTATTACTGCACACATTCTTACACTATAT [CACACA_site4533] | 8.36 |
| AGGATTATATATTAATGTACCCGCGTTAATTTTTTT [XGTACX_site2878] | 6.2 |
| AAATAGAGAAATACAAGTACATACTAAACCTATCTA [XGTACX_site1334] | 6 |
| TCTAATAAAATAAATACATGCATACATACATACATA [TGCATGCA_site895] | 6.39 |
| TATCTCTACAAAATTTTATTCATTATTCATGTTATA [XGTACX_negctrl_site452] | 6.7 |
| GTACAATAAGATGTAGCATGCCGTACCTTCACTACG [TGCATGCA_site235] | 6.52 |
| ACAAAGAAATATAATACACACAAGAATATATTGGAT [CACACA_site3901] | 6.81 |
| TAATATTTATCAAGTCGTACATAAAATGTATAATAA [XGTACX_site1103] | 6.13 |
